The source of these data is the RNAGym collection of RNA variant scans (doi:10.7554/elife.90254).

The source gives no read counts; variants with many changes may rest on few reads.

To fix the notation:
B1: OR4K15 (parent)
chain: GUUAACGGUCAUAGGCCAUGGAAACUAGGAGCACCAUUUCGCUGCCAGUGAAGAAAUGAACAAAGAAAAUCUGGGCCAGGCAGGCAUCAAAAGAAAUAGUCUUGCGCUCAACCAGAAAGUCUGUAAUCAUUUUAAGGGUA

This data set covers variants of B1. The experiment in a line: self-cleavage, relative activity (ratio to wild type); higher = more cleavage; in vitro, sequencing; the parent is a self-cleaving ribozyme.
In the case of GUUAGCGGUCAUAGGCCAUGGAAACUAGGAGCACCAUUUCGCUGCCAGUGAAGAAAUGAACAAAGAAAAUCUGGGCCAGGCAGGCAUCAAAAGAAAUAGUCUUGCGCUCAUCCAGAAAGUCUGUAUUCAUUUUAAGGGUA, the self-cleavage was 0.06.
Consider GUUAGCGGUCAUAGGUCAUGGAAACUAGGAGCACCAUUUCGCUGCCAGUGAAGAAAUGAACAAAGAAAAUCUGGGCCAGGCAGGCAUCAAAAGAAAUAGUCUUGCGCUCAACCAGAAAGUCUGUAAUCGUUUUAAGGGUA, for which the self-cleavage came out at 1.75.
In the case of GUUAGCGGUCAUAGGCCAUGGAAACUAGGAGCAACAUUUCGCUGCCAGUGAAGAAAUGAACAAAGAAAAUCUGGGCCAGGCAGGCAUCAAAAGAAAUAGUCUUGCGCUCAACCAGGAAGUCUGUAAUCAUUUUAAGGGUA it was 0.2; in that of GUUAGCGGUCAUAGGCCAUGGAAACUAGGAGCACCAUUUCGCUGCCAGUGAAGAAAUGAACAAAGAAAAUCUGGGCCAGGCAGGCAUCAAUAGAAAUAGUCUUGCGCCCAACCAGAAAGUCUGUAAUCAUUUUAAGGGUA, 0.03; in that of GUUAGCGGUCAUAGGCUAUGGAGACUAGGAGCACCAUUUCGCUGCCAGUGAAGAAAUGAACAAAGAAAAUCUGGGCCAGGCAGGCACCAAAAGAAAUAGCCUUGCGCUCAACCAGAAGGUCCGUAAUCAUUUUAUGGGUA, 0.13.
In the case of GUUAGCGGUCAUAGGCCAUGGAAACUAGGAACACCAUUUCGCUGCCAGUGAAGAAAUGAACAAAGAAGAUCUGGGCCAGGCAGGCAUCAAAAGAAAUAGUCUUGCGCUCAACCAGAAAGUCUGUAAUCAUUUUAAGGGUA it was 1.02; in that of GUUAGCGGUCAUAGGCCAUGGAAACUAGGAGUACCAUUUCGCUGCCAGUGAAGAAAUGAACAAUGACAAUCUGGGCCAGGCAGGCAUCAAAAGAAAUAGUCUUGCGCUCAACCAGAAAGUCUGUAAUCAUUUUAAGGGUA, 0.72; in that of GUUAGCGGUCAUAGGCCAUGGAAACUAAGAGCACCAUUUCGCUGCCAGUGAAGAAAUGAACAGAGAAAAUCUGGGCCAGGCAGGCAUCAAAAGAAAUAGUCUUGCGCUCAACCAGAAAGUCUGUAAUCAUUUUAAGGGUA, 0.71.
In the case of GUUAGCGGUCAUAGGCCAUGGAAACUAGGAGCACCAUUUCGCUGCCAGUGAAGAAAUGAACAAAGAAAAUCUGGGCCAGGCAGGCAUCAGAAGAAAUAGUCUUGCGCUCAACCAGAGAGUCUGUAAUCAUUUAAAGGGUA it was 1.1.
GUUAGCGGCCAUAGGCCGUGGAAACUAGGAGCACCAUUUCGCUGCCAGUGAAGAAAUGAACAAAGAAAAUCUGGGCCAGGCAGGCAUCAAAAGAAAUAGUCUUGCGCUCAACCAGAAAGUCUGUAAUCAUUUUAAGGGUA: the self-cleavage turned out to be 0.91.
With GUUAGCGGUCAUAGGCCAUGGAAACUAGGAGCACCAUUUCGCUGCCAGUGAAGAAAUGAACAAAGAAAAUCUGGGCCAGGCAGGCAUCAAAAGAAAUAGUCUUGCGCUCAGCCAGAAGGUCUGUAAUCAUUUUAAGGGUA the figure was 0.
In the case of GUUAGCAGUCAUAGGCCAUGGAAACUAGGAGCACCAUUUCGCUGCCAGUGAAGAAAUGAACAAAGGAAAUCUGGGCUAGGCAGGCAUCAAAAGAAAUAGUCUUGCGCUCAACCGGAAAGUCUGUAAUCAUUUUAAGGGUA, the self-cleavage was 1.53.
With GUUAGCGGCCGUAGGCCAUGGAGACUAGGAGCACCAUUUCGCUGCCAGUGAAGAAAUGAACUAAGAAAAUCUGGGCCGGGCAGGCAUCAAAAGAAAUAGUCUUGCGCUCAACCAGAAAGUCUGUAAUCAUUUUAAGGGUA the figure was 0.42; with GUUAGCGGUCAUAGGCCAUGGAAACUAGGACCACCACUUCGCUGCCAGUGAAGAAAUGAACAAAGAAAAUCUGGGCCAGGCAGGCAUCAAAAGAAAUAGUCUUGCGCUCAACCAGAAAGUCUGUAAUCAUUUUAAGGGUA, 1.48.
With GUUAGCGGUCAUAGGCCAUGGAAACUAGGAGCACCAUUUCGCUGCCAGUGAAGAAAUGAACAAAGAAAAUCUGGGCCUGGCAGGCAUCAAAAGAAAUAGUCUUGCGCUCAGCCAGAAAGUCUGUAAUCAUUUUAAGGGUA the figure was 0.06; with GUUAGCGGACACAGGCCAUGGAAACUAGGAGCACCAUUUCGCUGCCAGUGAAGAAGUGAACAAAUAAAAUCUGGGCCAGGCAGGCAUCAAAAGAAAUAGUCUUGCGCUCAACCACAAAGUCUGUAAUCAUUUUAAGGGUA, 0.04.
With GUUAGCGGUCAUAGGCCAUGGAAACUAGGAGCACCAUUUCGCUGCCAGUGAAGAAAUGAACAAAGAAAAUCUGGGCCAGGCAGGCAUCAAAAGGAAUAGUCUUGCGCUCAGCCAGAAAGUCUGUAAUCAUUUUAAGGGUA the figure was 0.06; with GUUAGCGGUCAUAGGCCAUGGAAACUAGGAGCACCAUUUCGCUGCCAGUGAAGAAAUGAACAAAGAAAAUCUGGGCCAGGCAGGCAUCAAAAGAAAUAGUCUUGCGCUCAAACAGAAGGUCUGUAAUCAUUUUAAGGGUA, 0.02; with GUUAGCGGUCAUAGGCCAUGGAAACUAGGAGCACCAUUUCGCUGCCAGUGAAGAAAUGAACAAAGAAAAUCUGGGCCAGGCAGGCUUCAAAAGAAAUAGUCUUGCGGUCAACCAGAAAGUCUGUAAUCAUUUUAAGGGUA, 0.17.
For GUUAGCGGUCAUAGGCCAUGGAAACUAGGAGGACCAUUUCGCUGCCAGUGAAGAAAUGAACAAAGAAAAUCUGGGCCAGGCAGGCAUCAAAAGAAAUAGUCAUGCGCUCAACCAGAAAGUCUGUAAUCAUUUUAAGGGUA, the self-cleavage came to 0.65.
With GUUAGCGGUCAUAGGCCAUGGAAACUAGGAGCACCAUUUCGCUGCCAGUGAAGAAAUGAACAAAGAAAAUCUGGGCCAGGCAGGCAUCGAAAGAAAUAGUCUUGCGCUCAACCAGAAAGUCUGUAAUCAUUUCAAGGGUA the figure was 1.11; with GUUAGCGGUCAUAGGCCAUGGAAACUAGGAGUACCAUUUCGCUGCCAGUGAGGAAAUGAACAAAGAAAAUCUGGGCCAGGCAGGCAUCAAAAGAAAUAGUCUUGCGCUCAGCCAGGAAGUCUGUAAUCAUUUUAAGGAUA, 0.08; with GUUAGCGGUCAUAGGCCAUGGAAACUAGGAGCACCAUUUCGCUGCCAGUGAAGAAAUGAACAAAGAAAAUCUGGGCCAGGCAGGCAUCAAGGGAAAUAGUCUUGCGCUCAACCAGAAAGUCUGUAAUCAUUUUAAGGGUA, 0.96.
In the case of GUUAGCGGUCAUAGGCCAUGGAAACUAGGAGCACCAUUUCGCUGCCAGUGAAGAAAUGAACAAAGAAAAUCUGGGCCAGGCAGGCAUCAAAAGAAAUAGUCUUGCGCUCAACCGGAAAGUCCGUAAUCAUUUUAAGGGUA it was 0.13.
In the case of GUUAGCGGUCAUAGGCCAUGGAAACUAGGAGCACCAUUUCGCUGCCAGUGAAGAAAUGAACAAAGAAAAUCUGGGCCAGGCAGGCAUCAAAAGAAAUAGUCUUGCACUCAACCGGAAAGUCUGUAAUCAUUUUAAGGGUA it was 0.02; in that of GUUAGCGGUCAUAGGUCAUGGAAACUAGGAGCACCAUUUCGCUGCCAGUGAAGAAAUGAACAAAGAAAAUCUGGGCCAGGCAGGCAUCAAAAGAAAUAGUCUUGCGCUCAACCAGAAAGUCCGUAAUCAUUUUAAGGGUA, 0.69.
For the variant GUUAGCGGUCAUAGGCCAUGGAAACUAGGAGCACCAUUUCGCUGCCAGUGAAGAAAUGAACAAAGAAAAUCUGGGCCAGGCUGGCAUCAAAAGAAAUAGUCUUACGCUCAACCAGAAAGUCCGUAAUCAUCUUAAGGGUA, the self-cleavage is 0.01.
Consider GUUAGCGGUCAUAGGCCAUGGAAACUAGGAGCACCAUUUCUCUGCCAGUGAAGAAAUGAACAAAGAAAAUCUGGGCCAGGCAGGCAUCAAAGGAAAUAGUCUUGCGCUCAACCGGAAAGUCUGUAGUCAUUUUAAGGGUA, for which the self-cleavage came out at 0.11.
In the case of GUUAGCGGUCAUAGGCCAUGGAAACUAGGAGCACCAUUUCGCUGCCAGUGAAGAAAUGAACAAAGAAAAUCUGGGCCAGGCAGGCAUCAAAAGAGAUAGUCUUGCGCUCAGCCAGAAAGUCUGUAAUCAUUUUAAGGGUA, the self-cleavage worked out at 0.16.
On to GUUAGCGGUCAUAGGCCAUGGAAACUAGGAGCACCAUUUCGCUGCCAGUGAAGAAAUGAACAAAGAAAAUCUUGGCCAGGCAGGCAUCAAAAGAAGUAGUCUUGCGCUCAACCAGUAAGUCUGUAAUCAUUUUAAGGGUA, for which the self-cleavage is 0.1.
On to GUUAGCGGUCAUAGGCCAUGGAAACUAGGAGCACCAUUUCGCUGCCAGUGAAGAAAUGAACAAAGAAAAUCUCGGCCAGGCAGGCAUCAAAAGAAAUAGUCUUGCGCUCAACCAGAAAGUCUGUAAUCAUUUCAAGGGUA, for which the self-cleavage amounted to 0.43.
For GUUAGCAGUCAUAGGCCAUGGAAACUAGGAGCACCAUUUCGCUGCCAGUGAAGAAAUGAACAAAGAAAAUCCGGGCCAGGCAGGCAGCAAAAGAAAUAGUCUUGCGCUCAACCAGAAAGUCUGUAAUCAUUUUAAGGGUA, the self-cleavage was 0.24.
With GUUAGCGGUCAUAGGCAAUGGAGACUAGGAGCACCAUUUCGCUGCCAGUGAAGAAAUGAACAAAGAAAAUCUGGGCCAGGCAGGCAUCAAAAGAAGUAGUCUUGCGCUCAACCAGAAAGUCUGUAAUCAUUUUAAGGGUA the figure was 1.44.
With GUUAGCGGUCAUAGGCCAUGGAAACUAGGAGCAUCAUUUCGCUGCCAGUGAAGAAAUGAACAAAGAAAAUCUGGGCUAGGCAGGCAUCGAAAGAAAUAGUCUUGCGCUCAACCAGAAAGUCUGUAAUCAUUUUAAGGGUA the figure was 1.42; with GUUAGCGGUCAUAGGCCAUGGAAACUAGGAGCACCAUUUCGCUGCCAGUGAAGAAAUGAACAAAGAAAAUCUGGGCCAGGCAGGCAUCAAAAGAAAUAGUCUUGCGCUCAACCAGUAAGUCUGUACUCAUUUUAAGGGUA, 0.03; with GUUAGCUGUCAUAGGCCAUGGAAACUAGGAGCACCAUUUCGCUGCCAGUGAAGAAAUGAACAAAGAAAAUCUGGGCCAGGCAGGCGUCAAAAGAAAUAGUCUUGCGCUCAACCAGAAAGUCUGUAAUCAUUUUAAGGGUA, 0.94.
With GUUAGCGGUCAUAGGCCAUGGAAACUAGGAGCACCAUUUCGCUGCCAGUGAAGAAAUGAACAAAGAAAAUCUGGGCCAGGCAGGCAUCAAGAGAAAUAGUCUUGCGCCCAACCAGAAAGUCUGUAAUCAUUCUAAGGGUA the figure was 0.03; with GUUAGCGGUCAUAGGCCAUGGAAACUAGGAGCACCAUUUCGCUGCCAGUGAAGAAAUGAACAAAGAAAAUCUGGGCCAGGCAGGCAUCAAAGGAAAUAGUCUUGCGCUCAACCAGAAAGUCUGUAAUCUUUUUAAGGGUA, 0.57; with GUUAGCGGUCAUAGGCCAUGGAAACUAGGAGCACCAUUUCGCUACCAGUGAAGAAAUGAACAAAGAAAAUCUGGGCCAGGCAGGCAUCAAAAGAAAUAGUCUUGCGCUCAACCAGAAAGUCCGUAAUCAUUUUAAGGGUA, 0.76.
For GUUAGCGGUCAUAGGCCAUGGAAACUAGGAGCACCAUUUCGCUGCCAGUGAAGAAAUGAAAAAAGAAAAUCUGGGCCAGGCAGGCAUCAAAAGAAAUAGUCUUGCGCUCAACCAGAGAGUCUGUAAUCAUUUUAAGGGUA, the self-cleavage came out at 1.31.
In the case of GUUAGCGGUCAUAGGCCAUGGAAACUAGGAGCACCAUUUCGCUGCCAGUGAAGAAAUGAACAAAGAAAAUCUGGGACAGGCAGGCAUCAAAAGAAAUAGUCUUGCGCUCAACCAGAAAGUCUGUAAUCACUUUAAGGGUA it was 0.25.
